Results taken from the supplement of paper PMC3334620.
In all, about 33,000 sequences were measured (“E-score (-0.5 to 0.5)”: median about -0.043, highest 2% from about 0.37 on). The list shows a part of the results.

molecular target: T1, Upc2 (UniProt Q12151); assay: PBM E-score (8-mer binding enrichment) (E-score (-0.5 to 0.5)); higher = stronger / more preferred TF binding; most listed sequences are background and not binding sites; conditions: protein concentration: 200 nM; construct: GST-full length
T1 sequence: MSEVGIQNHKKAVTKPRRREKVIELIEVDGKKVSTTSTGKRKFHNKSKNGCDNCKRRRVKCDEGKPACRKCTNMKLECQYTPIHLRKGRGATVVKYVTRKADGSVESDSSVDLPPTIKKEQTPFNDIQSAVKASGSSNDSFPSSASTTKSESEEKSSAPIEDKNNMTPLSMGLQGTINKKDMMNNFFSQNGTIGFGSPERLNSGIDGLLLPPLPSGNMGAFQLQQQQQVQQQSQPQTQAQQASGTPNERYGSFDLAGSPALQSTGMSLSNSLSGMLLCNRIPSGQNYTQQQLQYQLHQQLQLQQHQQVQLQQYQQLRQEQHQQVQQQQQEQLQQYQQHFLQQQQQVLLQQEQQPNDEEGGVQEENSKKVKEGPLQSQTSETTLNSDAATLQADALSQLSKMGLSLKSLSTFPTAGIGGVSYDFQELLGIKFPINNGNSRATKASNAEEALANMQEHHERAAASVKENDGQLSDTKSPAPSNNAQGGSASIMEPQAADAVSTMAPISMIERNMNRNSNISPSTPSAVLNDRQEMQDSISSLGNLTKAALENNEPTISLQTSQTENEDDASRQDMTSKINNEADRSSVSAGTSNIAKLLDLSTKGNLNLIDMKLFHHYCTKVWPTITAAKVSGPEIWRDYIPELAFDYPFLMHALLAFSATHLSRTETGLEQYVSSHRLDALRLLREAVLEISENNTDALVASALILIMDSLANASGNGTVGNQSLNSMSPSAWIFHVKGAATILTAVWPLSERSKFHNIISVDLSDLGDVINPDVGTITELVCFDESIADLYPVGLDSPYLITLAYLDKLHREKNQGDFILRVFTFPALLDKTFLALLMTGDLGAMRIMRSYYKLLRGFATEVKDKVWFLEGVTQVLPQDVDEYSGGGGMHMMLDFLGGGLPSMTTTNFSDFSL
In short: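 PURExpress in vitro transcription/translation supplied GST-tagged yeast transcription factors, either full-length or DNA-binding domain. Applied at about 100-200 nM to universal all-10-mer Agilent arrays double-stranded by primer extension, the bound protein was detected with fluorescent anti-GST. E-scores, modified Wilcoxon-Mann-Whitney statistics, were given by the Universal PBM Analysis Suite to ungapped eight-base words pooled with their reverse complements after masliner normalisation.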

Sequence | PBM E-score
CAGTACCA | -0.0443
GTTACGCA | 0.183
CCGCATCA | -0.168
CAGTGGAA | -0.306
CCTTAACC | -0.163
CGGATACA | 0.201
AATTGACG | 0.0233
ACGATTAC | 0.303
GATTAGGC | 0.0189
CATGGCCA | -0.34
CCAGAGCA | -0.219
ATGATCGC | -0.023
CCCCTCTC | -0.185
AGCGGGAA | 0.0721
ATGACACA | -0.0132
CTTCCTCA | -0.178
AATTGATA | 0.0661
GCCTGAGA | -0.254
AAGAACTC | 0.126
ATGTCATG | -0.0317
GCAAGCAC | -0.17
TATACACA | 0.191
CGAGACCA | 0.151
CGTCACAA | 0.0951
ATTCGTAA | 0.399

Sequence | PBM E-score
GATACCGC | -0.0629
ATCATGTA | 0.013
CAGTTAGA | -0.121
CTACAAGC | -0.017
GGTAGCGA | 0.0627
CTCGTTCC | 0.479
ACAAAATG | -0.0712
ATACGCTG | 0.315
ATTCTATA | 0.177
TCCTATCA | -0.224
CATGGGCG | -0.106
CTAAGGTC | -0.109
GGACGAGA | -0.00291
CTACCTAG | -0.225
AAGGTAAT | 0.0547
CGAGGGAC | 0.169
AACTGGCG | -0.217
AATATTTC | 0.178
AGTTTGCG | 0.0449
TAGGAGCA | -0.304
CTGCCCTA | -0.289
AAGAATGG | -0.163
CGATCGTA | 0.437
GATGTCGA | -0.0548
CTAAGCCC | -0.25

Sequence | PBM E-score
CAATCTCA | -0.0468
AAACCAGT | -0.00579
CGGCCGCA | -0.11
AACTCCAT | -0.187
GCGGTTCC | 0.103
AAACGCGT | 0.343
GCAGCCAC | -0.0673
ATACTCCA | -0.0309
ACCCTGTG | -0.104
CCCGGTTA | 0.115
CGAACTCA | 0.0312
GCACGACA | 0.0592
TCGAGAGA | 0.0401
ACGGAATC | 0.0206
AAAAGTCG | 0.0379
GTGATTAA | -0.147
GATTCTAC | 0.026
CTTTAGTA | -0.0146
AGCTGTGA | -0.0873
AAGTACTC | 0.173
CAATAGTA | -0.159
AAATCCAG | 0.0971
GTTCGTAA | 0.424
GTTGTCCA | 0.0403
AGAATGAT | -0.0518

Sequence | PBM E-score
AGATTAGC | -0.103
GTGCAGAA | 0.202
AGAGACAG | -0.21
GAGTCCTA | -0.202
ATAGGGTA | 0.138
AACTCCAC | 0.00868
AAGGTCAA | -0.257
GCAGAGCA | -0.151
CTTGCGAC | 0.0211
ATTTGGAA | -0.194
TAATTCCA | 0.0033
CTAGGATC | -0.0545
GACCAGGC | -0.226
ACGCTTAT | 0.00951
CGGCGATC | 0.071
CCGGCAGA | -0.14
GCGCCGGA | -0.0152
GCTTAACA | -0.0625
CGGCCCCA | -0.152
ATCGAGCC | 0.0281
TCGGTGCA | -0.104
CTCACATA | -0.0801
TAGTGGAA | -0.215
TGAAGGCA | -0.0834
CATGCATA | -0.0583

Sequence | PBM E-score
AAGGGAAG | -0.153
CTTGGTCC | -0.182
CACAACAG | -0.204
AGAATACG | 0.315
GAACACAC | 0.00893
CAGCAGGA | -0.306
AACCGGGA | 0.0691
AAAGGTTC | 0.00774
TCAGTGCA | -0.225
CAATGGTC | -0.0992
CAAATCCG | -0.0244
AAAGCATT | -0.0804
CCATGCAA | -0.14
GCGACTAC | 0.0157
ACAACTCC | -0.117
ACTGGCTG | -0.0756
GGGGGACC | -0.308
CGATCTAA | -0.0262
AACCCAGT | -0.0129
AAGGTGTA | -0.00282
CACTGCCA | -0.0268
ATCCGGGG | -0.0936
AATTAACA | 0.006
TGGCGACA | 0.0714
TAAAACTA | 0.0863

Sequence | PBM E-score
AGAAGTTC | -0.151
CTATACGC | 0.458
CTGCTTCC | -0.119
GTCGAAAA | 0.145
ATAATGGC | -0.0203
AATGCTCC | -0.293
CAACCTAG | -0.185
AGCCTGGG | -0.139
CAGTCCCA | -0.256
CCAGTTAC | -0.21
ATCCCAGG | -0.338
CCTAAAAA | -0.119
TGGCAAAA | -0.0725
ACAATTAT | 0.146
ATTTGTGG | -0.133
ACCAGACT | -0.0707
ACGAAGTG | 0.329
CTTAAATC | -0.0293
TCAAGTAA | -0.135
GCGTTCAA | 0.173
ATAAGCCG | -0.18
CTCGTTCA | 0.476
ACATAGCG | -0.165
CTTTGCAC | -0.022
CAGGAGAC | -0.0559

Sequence | PBM E-score
GCATCCTA | -0.0326
ACAGCCTA | -0.103
ATCAACTG | -0.177
AAGAGGTC | -0.186
GCCGTTAA | 0.292
CCCGTCGG | 0.0352
GTTCACTA | 0.224
CAATTGCG | -0.143
AATGTTCC | -0.181
AGGTCATC | 0.0599
GCCCCAAC | -0.00923
GAAGAGCC | -0.145
AGTCCGTA | 0.32
CCCCTATC | -0.118
ACCGCACG | 0.0511
ACTCGCAC | 0.0893
ATATAGTG | 0.0967
ATGGTGTC | -0.132
ACGATTCC | 0.299
CAATGGGA | -0.161
ATGGTATC | 0.15
GTTATTGA | 0.0213
